Data: PubChem BioAssay AID743279 (National Center for Advancing Translational Sciences (NCATS), 2014)
Hit rate of the full screen: of about 360,000 compounds, about 17,000 (4.7%) were called active. This list was built around the results that the source calls inconclusive (neither active nor inactive); the mix of calls is not that of the screen. Cut-off read from the data, not from the text of the source: active = activity change below about -50%; inconclusive = mostly about -30% to -49%; inactive = weaker than that.

assay: qHTS for Inhibitors of Inflammasome Signaling: IL-1-beta AlphaLISA Primary Screen; conditions: THP-1 LPS/ATP IL-1B secretion, 16 h; at 57.5 µM, hits give low values
In short: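 THP-1 cells pretreated 1 hr with compounds (up to 57.5 uM final), then stimulated with LPS (250 ng/mL final) plus ATP (1.25 mM final); secreted IL-1B measured by AlphaLISA after 16 hr, decreased signal indicating inhibition.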
% is set by controls: 0 for no effect and ±100 for the full control effect.

Activity change, inconclusive:
CC(C)CCN(N=O)[C@@H](Cc1ccccc1)CN(N=O)[C@@H](Cc1ccccc1)CN(C)N=O -33.9%
CNC[C@@H](C)NC[C@@H](Cc1ccccc1)NCCc1ccccc1 -32.7%
CN1OC[C@@H]2CN(Cc3cc(Cl)cc(Cl)c3)[C@H](c3cccc(-c4ccc(C#N)cc4)c3)C[C@@H]21 -30.7%
CCOC(=O)c1nc(NCc2ccccc2)sc1C -30.8%
Cc1ccc(S(=O)(=O)Nc2ccc(-c3nnc(SCC#N)n3C)cc2)cc1 -33.3%
Oc1ccccc1/C=N/NC(=S)NC1CC2CC1C1C=CCC21 (configuration not stated) -32.6%
Cc1nc(Nc2nc3ccccc3o2)nc(C)c1C -34.4%
COC(=O)CNC(=O)CSc1nnc2cc(C)c3ccccc3n12 -37.2%
O=C(c1ccc(Cl)nc1)N1CCC(Cc2ccccc2)CC1 -35.3%
COc1ccc(CCNC(=O)c2ccc(SC)cc2OC)cc1 -46.8%
O=C(CSc1nc(Nc2ccccc2)nc(N2CCOCC2)n1)Nc1ccc([N+](=O)[O-])cc1 -48.8%
Cc1c(C(=O)N(Cc2ccc(N(C)C)cc2)CC2CCCO2)oc2ccccc12 (configuration not stated) -46.3%
COc1cc(/C=N/N(c2ccccc2)c2ccccc2)ccc1O -31.9%
Cc1c(Cl)cccc1NC(=O)NCc1ccccn1 -43.5%
COc1ccc(C2=Nc3ccccc3NC(=O)C2N(C(=O)c2ccnc3ccccc23)c2ccccc2)cc1 (configuration not stated) -35.8%
S=C(NCCc1ccccc1)Nc1ccc(Nc2ccccc2)cc1 -30.7%
O=C(CN1C(=O)/C(=C/c2ccc(C(F)(F)F)cc2)Sc2ccccc21)NCCCN1CCOCC1 -45.3%
COCCCNC(=O)Cn1cc(/C=C(\C#N)C(=O)NC2CCCC2)c2ccccc21 -42.9%
C/C(=N/O)c1cccc(N2Cc3ccccc3C2)c1 -44.8%
CN(C)c1cc[n+](CC(=O)c2ccc(-c3ccccc3)cc2)cc1 -30.9%
COc1ccccc1C1(CCNS(=O)(=O)c2ccc(C)cc2)CCOC(C(C)C)C1 (configuration not stated) -41.6%
CCCCn1nc(C(=O)Nc2cccc(C(=O)NC3CC3)c2)c2ccccc2c1=O -48%
CCCN(CCC)CCNC(=O)C1CCN(Cc2nc(-c3ccc(Cl)cc3)oc2C)CC1 -44.3%
CSC(=S)NN=C(C)c1cccc(C)n1 -38.5%
Cc1ccc(S(=O)(=O)NCC(=O)N/N=C/c2ccc(Cl)cc2Cl)cc1 -30.1%

Activity change, active:
COc1ccc2ccccc2c1CNC(C)c1ccccc1 (configuration not stated) -55.2%
COCCN(C(=O)c1ccco1)c1nnc(-c2ccc(OC)c(OC)c2)s1 -58.6%
COc1ccc(/C=C(\C#N)C(=O)NCc2ccccc2)cc1O -85.8%
O=C(Nc1cc(S(=O)(=O)Nc2ccc(Cl)cc2)ccc1N1CCCCC1)c1ccc(F)cc1 -66.2%
COc1ccc(NC(=O)COc2ccccc2C(=O)NCC(c2ccccc2)N(C)C)cc1Cl (configuration not stated) -102%
O=C(Nc1ccccc1Cl)C1CCCN(c2ncnc3c2nc2n3CCCCC2)C1 (configuration not stated) -62.6%
CC(O)CNCCCOc1ccc(Cl)cc1C(C)(C)C (configuration not stated) -65.5%
COc1cc(/C=N/NC(=O)c2sc(N)c(C#N)c2C)ccc1O -89.6%
c1ccc(Nc2nc(N3CCOCC3)c3ccccc3n2)cc1 -109%
O=C(COC(=O)C1(c2ccccc2F)CCCC1)NCc1ccc2c(c1)OCO2 -72.7%
COc1cc(/C=N/Nc2nc(-c3ccc(S(=O)(=O)N(C)C)cc3)cs2)ccc1O -90.9%
O=C(O)c1ccc(NC2=C/C(=N/S(=O)(=O)c3cccs3)c3ccccc3C2=O)cc1 -94.1%
O=C(CSc1ccc(-c2cccc([N+](=O)[O-])c2)nn1)N1CCCCCC1 -53.8%

Activity change, inactive:
CN(Cc1ccccc1)C(=O)CN1CCN(S(=O)(=O)c2ccccc2F)CC1 18.9%
CCc1ccc(-c2cc(C)no2)cc1S(=O)(=O)Nc1cc(C)ccn1 -9.28%
O=S1(=O)N=C(Nc2ccc(O)cc2)c2ccccc21 -15%
O=C(COc1coc(CN2CCN(c3ccc(F)cc3)CC2)cc1=O)NC1CCCCC1 0%
CCC(CC)c1nc2ccccc2c(=O)[nH]1 12.7%
CS(=O)(=O)N1CCCC(C(=O)NCCc2ccccc2)C1 (configuration not stated) 4.62%
COc1ccc(NC2CCCN(C(=O)c3ccc4nccnc4c3)C2)cc1OC (configuration not stated) 8.54%
CC(=O)c1cccc(NS(=O)(=O)c2ccc3c(c2)N(C(C)=O)CCO3)c1 30.9%
CN1OC[C@@H]2CN(S(=O)(=O)c3cccc(C(F)(F)F)c3)[C@H](c3ccc(-c4cccnc4)cc3)C[C@@H]21 21.8%
CC[C@@H]1CC=C[C@H]2[C@H]1C(=O)N(Cc1ccccc1)[C@H]2c1ccc(OC)c(Cl)c1 25.3%
CC(C)CNC(=O)c1[nH]c(C(F)(F)F)nc1-c1ccccc1 18.9%
Nc1c(C(=O)CSc2ncccn2)c(=O)[nH]c(=O)n1C1CC1 -3.09%
C=CCn1c(=O)c(C(=O)NCc2ccccc2)c(O)c2ccccc21 16%
CC(=O)Nc1ccc(CN2CCCN(C)CC2)cc1 8.54%
COc1ccc2c(c1OC)C(=O)OC2N1C(=O)CC[C@H]1C(=O)Nc1ccc(F)cc1F (some centres not stated) -10.2%
CCOC(=O)c1c(S(=O)(=O)NCc2ccc(C)o2)c(C)n(C)c1C 9.62%
Cc1nc(/N=C(\N)NC(=O)c2ccccc2)nc2ccccc12 -11.1%
CCc1cc(=O)n2[nH]c(C)c(-c3ccccc3OC)c2n1 -16.2%
O=C(O)CN=CC1=C(O)CC(c2ccccc2)CC1=O (configuration not stated) 16%
